Experimental data from article PMC4336329 (PLoS ONE, 2015).
Hit rate of the full screen: of about 310,000 compounds, about 2,200 (0.71%) showed an effect of 50% or more. Effects have a minus sign here. This is one part of the list.

target: human ether-à-go-go-related gene (hERG) potassium channel (human, UniProt Q12809); assay: primary screen, population patch clamp on CHO cells stably expressing hERG
Sequence (Q12809 whole entry, looked up): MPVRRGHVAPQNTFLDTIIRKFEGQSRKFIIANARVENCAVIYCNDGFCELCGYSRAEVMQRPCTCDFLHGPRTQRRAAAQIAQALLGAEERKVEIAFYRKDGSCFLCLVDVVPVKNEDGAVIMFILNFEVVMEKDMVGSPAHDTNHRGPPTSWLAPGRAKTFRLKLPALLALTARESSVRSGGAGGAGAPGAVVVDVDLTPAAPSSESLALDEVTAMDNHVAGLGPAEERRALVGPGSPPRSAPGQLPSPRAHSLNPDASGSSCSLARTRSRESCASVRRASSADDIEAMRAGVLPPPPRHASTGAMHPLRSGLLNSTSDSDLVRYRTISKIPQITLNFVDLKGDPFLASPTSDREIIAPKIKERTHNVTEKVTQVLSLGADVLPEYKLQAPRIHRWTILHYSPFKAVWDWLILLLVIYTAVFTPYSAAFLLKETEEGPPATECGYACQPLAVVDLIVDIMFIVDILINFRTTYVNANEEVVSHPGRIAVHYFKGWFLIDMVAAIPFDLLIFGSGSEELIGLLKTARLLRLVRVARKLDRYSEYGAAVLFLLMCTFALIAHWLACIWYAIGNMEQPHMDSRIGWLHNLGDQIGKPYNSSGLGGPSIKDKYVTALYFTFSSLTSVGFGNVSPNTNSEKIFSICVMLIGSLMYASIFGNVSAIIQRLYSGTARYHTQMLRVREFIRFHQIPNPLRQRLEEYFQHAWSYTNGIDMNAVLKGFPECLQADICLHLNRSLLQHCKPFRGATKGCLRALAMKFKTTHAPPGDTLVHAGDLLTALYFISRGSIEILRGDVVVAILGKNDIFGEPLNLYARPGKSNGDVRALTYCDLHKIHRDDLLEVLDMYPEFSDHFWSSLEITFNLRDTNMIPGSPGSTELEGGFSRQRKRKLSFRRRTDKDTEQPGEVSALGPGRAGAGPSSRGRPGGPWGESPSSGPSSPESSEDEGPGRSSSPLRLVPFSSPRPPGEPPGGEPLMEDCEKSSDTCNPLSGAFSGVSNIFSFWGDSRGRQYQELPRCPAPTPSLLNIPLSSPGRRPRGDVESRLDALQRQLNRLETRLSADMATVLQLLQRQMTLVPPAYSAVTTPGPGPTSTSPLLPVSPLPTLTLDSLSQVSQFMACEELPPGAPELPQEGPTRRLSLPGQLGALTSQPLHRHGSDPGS

Structure (SMILES)	hERG current change (%, negative = inhibition) at 1uM [%]
C#CCOC(=O)c1ccccc1C(=O)N(CC)CC	21
CCN(CC)Cc1cc(CCNC(=O)c2ccc(Cl)cc2)ccc1O	-4.58
Cc1cc(C)n(C(=O)COc2ccccc2C)n1	-0.37
O=C1c2ccccc2C(=O)N1CN(C(=O)c1ccccc1)c1ccc(O)cc1	8.32
COc1ccc(C2C(C#N)=C(N)Oc3cc(N)ccc32)cc1 (stereo not shown)	11
C/C=C/c1cc(CN2CCN(c3ccc(OC)cc3)CC2)c(O)c(OC)c1	-8.96
O=C(Nc1ccc(Cc2ccncc2)cc1)c1cc([N+](=O)[O-])ccc1N1CCOCC1	-6.03
O=C(Oc1cccc(Cl)c1)N1CCOCC1	8.48
CCOC(=O)Cn1cc(Cl)c(=O)c(Cl)c1	0.0686
Cc1cc(C)n2cc(COc3ccccc3)nc2n1	8.49
C=CCOc1ccc(/C=C/C(=O)OCC(=O)N(C)C2CCS(=O)(=O)C2)cc1 (stereo not shown)	-4.87
CC1CC(C)(C)N(C(=O)CN2CCN(C)CC2)c2ccccc21.O=C(O)C(=O)O (stereo not shown)	11.7
COc1ccccc1NC(=O)CN1CCN(CC(=O)Nc2ccc(F)cc2)CC1	-87.4
COc1ccc([N+](=O)[O-])cc1NC(=O)CSc1nc(C)c(C)c(C)n1	6.75
CN(C)c1cccc(-c2nnc(SCCCC#N)o2)c1	0.892
COc1ccc(Cl)cc1NC(=O)CSc1nnc(Cc2cccn2C)n1-c1ccc(F)cc1	2.71
O=C(NC1CCCC1)c1ccc2c(c1)N(Cc1ccc(F)cc1)CCS2	9.23
O=C(Nc1cccc(C(F)(F)F)c1)c1cc(S(=O)(=O)N2CCCCC2)ccc1N1CCOCC1	0.0815
COC(=O)C(C)SC1=N/C(=C/c2ccc(-n3cncn3)cc2)C(=O)N1 (stereo not shown)	6.88
CC(=O)c1ccc(NC(=S)Nc2cccc(Cl)c2C)cc1	12.3
O=C1C2CCN(CC2)[C@@H]1Cc1ccc2ccccc2c1O	-2.93
CC(Oc1ccccc1)c1ccnn1S(C)(=O)=O (stereo not shown)	13.5
CCCCC(CC)CNC(=O)CCCCn1c(=O)[nH]c2ccsc2c1=O (stereo not shown)	7.97

Structure (SMILES)	hERG current change (%, negative = inhibition) at 1uM [%]
CCN(CC)CC(=O)c1c(N)n(Cc2ccccc2)c(=O)n(C)c1=O	10.2
CC(C)c1nc(-c2ccc([N+](=O)[O-])cc2)cs1	9.64
O=C(CCSc1ccc(Cl)cc1)N1CCCCCC1	3.95
COc1ccc(C(CNS(=O)(=O)c2ccccc2)N2CCN(C)CC2)cc1 (stereo not shown)	-3.7
CCOC(=O)CNC(=O)CN1C(=O)CC(c2ccco2)Sc2ccccc21 (stereo not shown)	-24.1
Cc1nc(NC(=O)CSc2nc3ccccc3s2)sc1C(=O)N(C)C	9.25
COc1ccc(NC(=O)/C=C2\SC(=O)NC2=O)cc1	8.47
O=C(CSc1cccc[n+]1[O-])N1CCCCCC1	11.7
CCOc1ccc(OCC)c(NC(=O)C2CCCN(S(=O)(=O)c3c(C)noc3C)C2)c1 (stereo not shown)	6.18
COc1ccc(/C=C2\OC(=O)c3c(OC)cccc32)cc1OC	13.1
CN1CCN(Cc2ccc(N)cc2)CC1	3.71
CC1=C(C)C(OCCCl)N(c2cc(O)c(Cl)cc2F)C1=O (stereo not shown)	11.2
COc1ccc(C2C(C(=O)Nc3cccc(C)n3)c3ccccc3C(=O)N2C)cc1OC (stereo not shown)	0.676
COc1ccccc1/C=C/C(=O)NC1CC2CCC1C2 (stereo not shown)	4.97
CCCCc1ccc(-c2ccc(Br)cc2O)nc1	5.41
CCOC(=O)NC(Nc1nc2ccccc2s1)(C(=O)OCC)C(F)(F)F (stereo not shown)	5.8
O=C(NCCCN1CCOCC1)c1cc2c([nH]c3ccccc32)c(-c2cccc(Br)c2)n1	10.2
Cc1cc(C)cc(C(=O)OCC(=O)Nc2cccc(S(=O)(=O)NC3=NCCCCC3)c2)c1	3.04
CN(C)/N=C/c1cc(Cl)cc([N+](=O)[O-])c1O	12.9
CC1CCc2c(sc3ncn(N)c(=N)c23)C1 (stereo not shown)	13.6
CC(C)Nc1nnc(SC(C)C(=O)Nc2ccc(N3CCOCC3)cc2)s1 (stereo not shown)	12.4
CCOc1ccccc1NC(=O)Cc1coc2ccc(C)cc12	19.2
COc1cccc(Cn2c(NCC(C)C)nc3c2c(=O)n(C)c(=O)n3C)c1	-7.04
